Assay results: the supplement of paper PMC10126150
Sequences with one replicate were seen in a single cluster, so their values are uncertain.

Tested on: ATP
Test: switch fluorescence ratio, 500 uM ATP over buffer (Cy3 cluster intensity, sum of 5 cycles each) (fold (ratio)); higher = stronger signal-on switching upon ATP binding; sequences stand for … in TCGTCGGCAGCGTCAGATGTGTATAAGAGACAGTTTTTTTTTTTTTTTTTTTTTTTTT…TC
Settings: aptamer strand: ATP DNA aptamer (quencher-CACCTGGGGGAGTATTGCGGAGGAAGG + anchor), 100 nM annealed; ATP concentration: 500 uM; one replicate
Outline: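 Cy3-labelled switching-strand clusters on a modified Illumina MiSeq flow-cell were annealed to 100 nM quencher-labelled ATP aptamer, imaged in selection buffer, then imaged after 15 min with 500 uM ATP at 22 °C. Five buffer/ATP cycles ran, with NaOH stripping and re-annealing between them. The fluorescence ratio is summed target-cycle over summed buffer-cycle Cy3 intensity per cluster, averaged per switch-domain sequence. Clusters outside 100-1000 RFU were excluded.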
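Further: ATP exposure 15 min at 22 °C before imaging.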

Row | Sequence | switch fluorescence ratio
1 | CCTAAAAGTC | 0.956
2 | CCAGGCGCGA | 2.43
3 | ACTAGGCTTC | 1.04
4 | GTTGCATAAT | 1.02
5 | CGGATACCTT | 1.06
6 | GCTGTATGGG | 1
7 | ATGATGCCTT | 1.01
8 | ATACTACC | 1.38
9 | TTTGCTATAA | 1.34
10 | CTGCTCGCAT | 3.52
11 | TAAGTGTTGA | 1.07
12 | TGCTCCAGGT | 1.87
13 | GTGTAACGCT | 0.982
14 | TAGATATGTG | 0.977
15 | GTGCATTAG | 1.27
16 | GCTGAAGGAC | 0.966
17 | GTTTTTGAGC | 1.03
18 | GGGCGCGCGC | 1.05
19 | TTTGGCGGCA | 1.03
20 | TGTCAGGCA | 1.01
21 | ACATAATTAT | 1.03
22 | AACTTAGGAT | 0.987
23 | TGAACCCCCT | 1.28

Row | Sequence | switch fluorescence ratio
24 | TTTAGGTGCC | 1.1
25 | TCTGGTGT | 1.06
26 | TTGTATAAGT | 1.09
27 | CCGTTTGTTC | 1.15
28 | TTTCTATTCC | 1.02
29 | AAGCAGGG | 1
30 | CCGGTCTCCT | 1.08
31 | GTTCGCACGA | 1.05
32 | GGTTCCCTAA | 1.01
33 | GACAAGGAGA | 0.991
34 | GTTATAACTT | 1.03
35 | AGGACCTTGT | 0.99
36 | ATCTGTCCGG | 0.957
37 | ACTTAACTAG | 1.03
38 | TGTTATGTTG | 0.961
39 | GGTCGAGGAC | 1.02
40 | GAGATTCATA | 1.01
41 | GTGATCGG | 0.968
42 | ACTTGCACGC | 1.28
43 | GCTTGTGAAT | 1.02
44 | TCCCGTTGCA | 1.04
45 | CATCAGCTTT | 2.76
46 | TTTCCACTTC | 1.04

Row | Sequence | switch fluorescence ratio
47 | GTTAGTCTGG | 1
48 | CAAGCTATTT | 1.06
49 | AGTGCTCGAG | 0.971
50 | TGTGCGGTGT | 1.03
51 | CTGTGAGAGA | 0.975
52 | TGACTGGGAG | 1.02
53 | TGATCCATCC | 1.1
54 | CTTCCAAAGG | 1.14
55 | TACACTGCAT | 1.56
56 | TGGTCCTGTT | 0.984
57 | TGACGTGGAA | 1.06
58 | TGTAACTACG | 1.08
59 | TATAATTAAA | 1.07
60 | ATTGAGAGGC | 0.992
61 | CCGGGCGGGC | 1.54
62 | TGGTGTCCGA | 0.953
63 | AGACTAAGCA | 1.04
64 | CGGAGAGCCT | 0.996
65 | TAGGGTGTAG | 0.951
66 | GATATTATAA | 0.987
67 | CCTGACTGGG | 1.05
68 | TGCATCACGC | 1.01
69 | ATAAGTATTT | 0.987

Row | Sequence | switch fluorescence ratio
70 | AAGTCGTGAA | 1
71 | CCCTTTCGAT | 1.05
72 | GGTTCGTGTT | 0.949
73 | AATCTGTAC | 1.02
74 | GTGATCAGCT | 0.976
75 | CGCCCGGAGG | 1.01
76 | CATACGGCAT | 1.06
77 | TACAGTATCG | 1.01
78 | ACTATGACCT | 1.29
79 | CCCGAAGAGT | 1.8
80 | GTTAGGTAAG | 1.24
81 | CCTTCGTATT | 4.09
82 | GTGACCCCGC | 1.19
83 | TTGGGCCCAC | 1.01
84 | ATTATGGAA | 0.995
85 | ACTGCTTGTA | 0.989
86 | CATAGGGGAT | 0.98
87 | GTCTAACCGC | 1.02
88 | CAGAATTAAG | 0.999
89 | GAATACCCAA | 1.05
90 | ATTATCGAGC | 0.983
91 | GAACCAGCGG | 1.06
92 | CTGGGTAATG | 1.06

Row | Sequence | switch fluorescence ratio
93 | AAACCGTATG | 1.05
94 | GTATGTAAGT | 0.993
95 | TTAAGTTAGA | 1.01
96 | TGTGCGGGCC | 0.998
97 | AAACCCGATG | 1.04
98 | TGAAGTGTCA | 1.06
99 | GGGATTCTGG | 0.97
100 | GTAGCGCACG | 1.05
101 | GAGATGTGGA | 0.998
102 | GCAGGGGCAG | 1.06
103 | GGTGGGATTG | 1.04
104 | CGTAGAGAGA | 1.01
105 | TTCCGATGGG | 1.11
106 | CCAGTACTAG | 1.05
107 | TTCAGACGAC | 1.11
108 | CATTTATCTA | 0.955
109 | TAGACTCCAG | 1
110 | TGAGCGCGGC | 0.954
111 | TGCATCGTGG | 1.02
112 | TTCCACGTAC | 1.93
113 | AGGACGCAGT | 1
114 | AACCCTATAA | 1.11
115 | ACAATTGCAG | 1.01

Row | Sequence | switch fluorescence ratio
116 | CTTGGGGACT | 1.02
117 | CACATCAAGG | 1.05
118 | ATCCAGCACG | 1.06
119 | AGCCCAGTTC | 1.04
120 | ATCATGGGAA | 1.06
121 | CAAAGTTTGA | 1.01
122 | AGGGGTAACC | 1.19
123 | TCTGAGACTC | 1.09
124 | TCGTGCTCTT | 0.985
125 | GAGCCTGGCG | 0.984
126 | ATTTAATCT | 0.964
127 | GTGCTATAAC | 1.12
128 | AGTGGGCAGC | 0.991
129 | AAACATTACT | 1.24
130 | ATATTCGTGA | 1.01
131 | ATGACGAACA | 1.08
132 | GTACTTTCCA | 0.965
133 | ACGGGCTCTC | 0.977
134 | ATAAGGAAAT | 1.04
135 | CATTGCAGCT | 0.992
136 | CGTTTAAGGC | 1.04
137 | CGAGTTCAGA | 1.02
138 | AATAATTGTT | 0.991

Row | Sequence | switch fluorescence ratio
139 | CCAGACTTCG | 1.15
140 | ACGTCCTGTA | 0.979
141 | CATTCCTGTA | 0.994
142 | TGGGCTTCG | 1.02
143 | GGAAGGCTAG | 0.954
144 | TATGGTGCT | 1.02
145 | AGCCAGAGGA | 0.977
146 | ATTATATAAA | 0.98
147 | CGACGCGGAG | 1.27
148 | CCGCTAGTTT | 1.28
149 | CGGATTGTCA | 1.01
150 | CCTAGTGCGT | 1.07
151 | CCATTTAAGT | 0.958
152 | TTTATAGTGA | 1.02
153 | TAGCCAGCGC | 1.09
154 | GACGAGTGAC | 1.13
155 | GTGTGGAAAC | 0.992
156 | GTTGGAGTAG | 0.981
157 | TTATCCCCTA | 0.982
